Over roughly 33,000 sequences, “E-score (-0.5 to 0.5)” has its median near -0.036; the highest 2% begin near 0.37. Some of the results follow.
biological target: T1, Yer064c (UniProt P40041); assay: PBM E-score (8-mer binding enrichment) (E-score (-0.5 to 0.5)); higher = stronger / more preferred TF binding; most listed sequences are background and not binding sites; settings: protein concentration: 200 nM; construct: GST-full length
T1 sequence: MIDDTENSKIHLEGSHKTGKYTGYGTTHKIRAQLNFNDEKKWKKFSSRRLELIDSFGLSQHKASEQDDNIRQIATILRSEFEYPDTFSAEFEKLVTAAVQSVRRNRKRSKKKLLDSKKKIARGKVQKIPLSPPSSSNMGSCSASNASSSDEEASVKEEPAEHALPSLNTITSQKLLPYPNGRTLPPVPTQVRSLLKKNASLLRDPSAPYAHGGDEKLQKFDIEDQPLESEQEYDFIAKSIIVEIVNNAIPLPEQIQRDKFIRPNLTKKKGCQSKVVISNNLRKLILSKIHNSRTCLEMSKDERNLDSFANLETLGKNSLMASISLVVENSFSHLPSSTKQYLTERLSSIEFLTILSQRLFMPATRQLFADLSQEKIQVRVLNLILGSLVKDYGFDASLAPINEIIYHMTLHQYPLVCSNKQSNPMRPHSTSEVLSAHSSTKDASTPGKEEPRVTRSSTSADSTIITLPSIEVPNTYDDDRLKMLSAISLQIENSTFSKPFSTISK
Summary of the method: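 Each ungapped eight-base word and its reverse complement, pooled, received an E-score from the Universal PBM Analysis Suite. Underlying scans, normalised with masliner, recorded fluorescent anti-GST bound to GST-tagged yeast transcription factors. These were applied at about 100-200 nM to universal all-10-mer Agilent arrays double-stranded by primer extension.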

| Sequence | PBM E-score |
| --- | --- |
| GCCACGCA | -0.212 |
| ATGACGTG | -0.239 |
| ACGAAGCC | -0.0316 |
| GACCACGA | -0.0848 |
| CACGCGTA | 0.0295 |
| AATGCTGC | -0.239 |
| CTGTACCA | -0.0997 |
| ACACTAAG | 0.131 |
| TCTATGCA | 0.0844 |
| GGAAAAAC | -0.169 |
| GTGCTAGA | -0.123 |
| GCAGTGAC | 0.232 |
| GGCATTCA | -0.228 |
| GACGGCGC | -0.218 |
| AACTAGAT | -0.0283 |
| AGCGCAAA | -0.142 |
| GAACATCC | -0.125 |
| CCCATACC | -0.0853 |
| TACAGGTA | -0.0802 |
| CTGTCTCC | 0.046 |
| ACGCTCCT | -0.212 |
| AAATCACT | 0.327 |
| AGCGCATC | -0.0879 |
| TGCTGAAA | -0.0596 |
| ATGCCATG | -0.0903 |

| Sequence | PBM E-score |
| --- | --- |
| CATCGCGG | -0.174 |
| AGGAATAT | 0.0472 |
| CGAGACGA | -0.0652 |
| GGCGCCCC | -0.259 |
| ATTAGGCA | -0.0366 |
| AAACCGGC | -0.0714 |
| GCTTGCAC | -0.15 |
| CCTATCAC | -0.173 |
| GTGTATTA | 0.136 |
| GGGAGAAA | -0.185 |
| CCGGCTAG | -0.332 |
| GGCCACCC | -0.0842 |
| CAGGTTGC | -0.179 |
| AGTGCACT | 0.0871 |
| AGGCTGCA | 0.0282 |
| ACTGAACT | -0.0143 |
| GACCTATA | 0.134 |
| GGACAGCC | -0.269 |
| GGCCGACA | -0.0946 |
| CGCAGCCC | -0.245 |
| AACCCTCA | -0.102 |
| GCGCTAGC | -0.192 |
| AGCGGCCG | -0.199 |
| CGGCTTCC | -0.29 |
| CGGCTGAA | 0.0435 |

| Sequence | PBM E-score |
| --- | --- |
| ATCAATCA | 0.381 |
| CACATTGG | -0.158 |
| CCTTCGGC | -0.197 |
| GCAAGACC | -0.339 |
| CCGTGTGC | -0.134 |
| ATCTGGAG | -0.114 |
| TAGGTTGA | 0.116 |
| ACTAGTGG | 0.0661 |
| AGTCTGTC | 0.191 |
| AGGTGTGA | 0.039 |
| AGAGACGG | -0.0817 |
| ATAGCAAC | 0.122 |
| AAGAGGGA | -0.188 |
| TCGCCGCA | -0.142 |
| CGACGCAA | -0.207 |
| ACAGAGAG | -0.127 |
| TAATACCA | 0.0825 |
| AGCGTCGG | 0.0438 |
| AACTTCTA | 0.0503 |
| CCAGTTTA | -0.135 |
| ACGAGACC | -0.0683 |
| CGCAGGCG | -0.083 |
| CCTCGTAA | -0.12 |
| AGCGATAG | -0.1 |
| CCATGTTA | 0.0639 |

| Sequence | PBM E-score |
| --- | --- |
| TAGGCGAA | -0.0147 |
| AGGACCTA | 0.101 |
| AACAACGA | 0.124 |
| CAGGGCGG | -0.234 |
| AATGACAA | 0.00147 |
| GCGGTCAC | -0.079 |
| AGGTCACA | 0.1 |
| AACCGCTA | -0.169 |
| CGTCAAAC | -0.149 |
| ATCAATAA | 0.163 |
| AAGTCGAA | 0.0624 |
| CGCTGCGC | -0.135 |
| CTTTGAAA | 0.116 |
| TCAGTCCA | 0.0317 |
| GCTGTCCA | -0.0439 |
| AAGCTAGT | 0.0861 |
| AACCAATT | -0.0652 |
| CCAGTTCC | -0.339 |
| TATAGCCA | 0.125 |
| CGGCAGTC | 0.221 |
| CGGCGGCA | -0.238 |
| TCCGGCCA | -0.292 |
| ATCTCGCC | -0.0358 |
| CGCATCAC | -0.126 |
| ATACGTTG | -0.205 |

| Sequence | PBM E-score |
| --- | --- |
| TAATTTGA | 0.119 |
| CATGTCGA | -0.00928 |
| AAAGATCT | -0.103 |
| TACTTATA | 0.116 |
| AAACCTTT | -0.0723 |
| AGCCAACG | -0.103 |
| CCTCGAGC | -0.148 |
| CAGAACAA | 0.0283 |
| GACATATC | 0.00089 |
| AGCGAACT | 0.18 |
| CCCAGGAG | -0.148 |
| CCAGGGCA | -0.227 |
| AGTACTTA | 0.162 |
| ATAAGGTC | 0.0324 |
| ACGGGATA | -0.161 |
| GCAACTTA | -0.0742 |
| CCCTCGAA | -0.175 |
| CATAGCCG | 0.0677 |
| ACCACTAC | -0.102 |
| GTGCTAAA | 0.0596 |
| TCGGAAAA | 0.0742 |
| CGTGCACA | 0.0424 |
| AGTTCGAC | -0.0305 |
| AATGACCA | 0.0838 |
| ATGCATTC | -0.139 |

| Sequence | PBM E-score |
| --- | --- |
| GCTCCGCA | -0.00188 |
| CCATACCG | -0.0496 |
| ATAGGGCA | -0.155 |
| AACAGCAT | -0.0448 |
| GACCGTCA | -0.169 |
| GCATGACC | 0.0217 |
| AGTACCTA | 0.101 |
| TATGAATA | 0.0885 |
| CACTTTCA | -0.00334 |
| AGTTAACA | 0.0587 |
| GTAAACAC | 0.00508 |
| GCCGGGAC | -0.188 |
| GACGCCGA | -0.0356 |
| CCACCAGC | -0.0281 |
| AGGAGCGG | -0.264 |
| AAGGCCAC | -0.21 |
| GGAGGTAC | -0.0956 |
| ATGCCACA | -0.163 |
| CCCCATTC | -0.206 |
| TAATCATA | 0.457 |
| CGAGTTCC | 0.117 |
| GAAACTGC | -0.334 |
| CGAATTAC | -0.164 |
| GCCCGCTA | -0.352 |
| TGATGACA | -0.146 |

| Sequence | PBM E-score |
| --- | --- |
| TCCCGCGA | 0.113 |
| CAAAACTC | -0.0536 |
| GGCGAACC | -0.174 |
| CGCCGTAG | -0.0211 |
| GAGATATC | -0.21 |
| ACTTATGC | 0.199 |
| AGAGAGCA | -0.079 |
| CGATACAA | -0.0871 |
| TTAACAAA | 0.199 |
| ACCAATAC | -0.0932 |
| GCGTCGCA | 0.0193 |
| CACAAATA | 0.114 |
| CGGGTCCA | -0.0875 |
| CCGCGCGG | -0.0114 |
| AGGGTGCG | -0.267 |
| ACAATACA | -0.119 |
| CAGGCGCC | -0.142 |
| AAGCGCAC | -0.23 |
| GCCATAAC | -0.0271 |
| CTTGATAC | 0.0819 |
| GGACACCA | -0.262 |
| GAGCACTC | -0.182 |
